# The list shows a part of the results.
# B1: SJA (Sophora japonica) (protein)
# chain: FLGLFNSGGYSSSYQIVAVEFDTYINEWDPKTRHIGIDINSINSTKTVTWGWENGEVAIVLISYKAATETLTVSLTYPSSQTSYILSAAVDLKSILPEWVRIGF
# Tests used:
# Assay in all cases: glycan array binding signal (z-score within array); higher = stronger binding
# Settings in all cases: glycan notation: IUPAC condensed, linker removed
# [1] = biological target: GlcNAc(a1-3)Gal(b1-4)GlcNAc
# Procedure, shortened: (§1)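 Arrays were curated from the Consortium for Functional Glycomics database, 3228 in total, and kept only where the protein sequence was available. Binding is expressed as a within-array Z-score. This score was averaged across arrays of the same protein sequence at different concentrations or buffers and across linkers, and negative values can be read as non-binding.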
# [2] = biological target: GlcNAc(a1-4)Gal(b1-3)GlcNAc
# Procedure, shortened: as §1
# [3] = biological target: GlcNAc(a1-4)Gal(b1-4)GalNAc
# Procedure, shortened: as §1
# [4] = biological target: GlcNAc(a1-4)Gal(b1-4)GlcNAc
# Procedure, shortened: as §1
# [5] = biological target: GlcNAc(a1-4)Gal(b1-4)GlcNAc(b1-3)Gal(b1-4)Glc
# Procedure, shortened: as §1
# [6] = biological target: GlcNAc(a1-4)Gal(b1-4)GlcNAc(b1-3)Gal(b1-4)GlcNAc
# Procedure, shortened: as §1
# [7] = biological target: GlcNAc(a1-4)Gal(b1-4)GlcNAc(b1-3)Gal(b1-4)GlcNAc(b1-3)Gal(b1-4)GlcNAc
# Procedure, shortened: as §1
# [8] = biological target: GlcNAc(a1-4)Gal(b1-4)GlcNAc(b1-3)Gal(b1-4)[Fuc(a1-3)]GlcNAc(b1-3)Gal(b1-4)[Fuc(a1-3)]GlcNAc
# Procedure, shortened: as §1
# [9] = biological target: GlcNAc(a1-6)Gal(b1-4)GlcNAc
# Procedure, shortened: as §1
# [10] = biological target: GlcNAc(b1-2)Gal(b1-3)GalNAc
# Procedure, shortened: as §1
# [11] = biological target: GlcNAc(b1-2)Man(a1-3)[GlcNAc(b1-2)Man(a1-6)]Man(b1-4)GlcNAc(b1-4)GlcNAc
# Procedure, shortened: as §1
# [12] = biological target: GlcNAc(b1-2)Man(a1-3)[GlcNAc(b1-2)Man(a1-6)]Man(b1-4)GlcNAc(b1-4)[Fuc(a1-6)]GlcNAc
# Procedure, shortened: as §1
# [13] = biological target: GlcNAc(b1-2)Man(a1-3)[GlcNAc(b1-4)][GlcNAc(b1-2)Man(a1-6)]Man(b1-4)GlcNAc(b1-4)GlcNAc
# Procedure, shortened: as §1
# [14] = biological target: GlcNAc(b1-2)Man(a1-3)[GlcNAc(b1-4)][GlcNAc(b1-2)Man(a1-6)]Man(b1-4)GlcNAc(b1-4)[Fuc(a1-6)]GlcNAc
# Procedure, shortened: as §1
# [15] = biological target: GlcNAc(b1-2)[GlcNAc(b1-4)]Man(a1-3)[GlcNAc(b1-2)Man(a1-6)]Man(b1-4)GlcNAc(b1-4)GlcNAc
# Procedure, shortened: as §1
# [16] = biological target: GlcNAc(b1-2)[GlcNAc(b1-4)]Man(a1-3)[GlcNAc(b1-4)][GlcNAc(b1-2)Man(a1-6)]Man(b1-4)GlcNAc(b1-4)GlcNAc
# Procedure, shortened: as §1
# [17] = biological target: GlcNAc(b1-2)[GlcNAc(b1-4)]Man(a1-3)[GlcNAc(b1-4)][GlcNAc(b1-2)[GlcNAc(b1-6)]Man(a1-6)]Man(b1-4)GlcNAc(b1-4)GlcNAc
# Procedure, shortened: as §1
# [18] = biological target: GlcNAc(b1-2)[GlcNAc(b1-4)]Man(a1-3)[GlcNAc(b1-4)][GlcNAc(b1-2)[GlcNAc(b1-6)]Man(a1-6)]Man(b1-4)GlcNAc(b1-4)[Fuc(a1-6)]GlcNAc
# Procedure, shortened: as §1
# [19] = biological target: GlcNAc(b1-2)[GlcNAc(b1-6)]Man(a1-6)[GlcNAc(b1-2)Man(a1-3)]Man(b1-4)GlcNAc(b1-4)GlcNAc
# Procedure, shortened: as §1
# [20] = biological target: GlcNAc(b1-2)[GlcNAc(b1-6)]Man(a1-6)[GlcNAc(b1-2)Man(a1-3)]Man(b1-4)GlcNAc(b1-4)[Fuc(a1-6)]GlcNAc
# Procedure, shortened: as §1
# [21] = biological target: GlcNAc(b1-2)[GlcNAc(b1-6)]Man(a1-6)[GlcNAc(b1-4)][GlcNAc(b1-2)Man(a1-3)]Man(b1-4)GlcNAc(b1-4)GlcNAc
# Procedure, shortened: as §1
# GlcNAc(b1-3)Fuc = biological target: GlcNAc(b1-3)Fuc
# Procedure, shortened: as §1
# GlcNAc(b1-3)Gal = biological target: GlcNAc(b1-3)Gal
# Procedure, shortened: as §1
# [22] = biological target: GlcNAc(b1-3)Gal(b1-3)GalNAc
# Procedure, shortened: as §1
# GlcNAc(b1-3)Gal(b1-4)Glc = biological target: GlcNAc(b1-3)Gal(b1-4)Glc
# Procedure, shortened: as §1
# [23] = biological target: GlcNAc(b1-3)Gal(b1-4)GlcNAc
# Procedure, shortened: as §1
# [24] = biological target: GlcNAc(b1-3)Gal(b1-4)GlcNAc(b1-2)Man(a1-3)[GlcNAc(b1-3)Gal(b1-4)GlcNAc(b1-2)Man(a1-6)]Man(b1-4)GlcNAc(b1-4)GlcNAc
# Procedure, shortened: as §1
# [25] = biological target: GlcNAc(b1-3)Gal(b1-4)GlcNAc(b1-2)Man(a1-3)[GlcNAc(b1-3)Gal(b1-4)GlcNAc(b1-2)Man(a1-6)]Man(b1-4)GlcNAc(b1-4)[Fuc(a1-6)]GlcNAc
# Procedure, shortened: as §1
# [26] = biological target: GlcNAc(b1-3)Gal(b1-4)GlcNAc(b1-2)[GlcNAc(b1-3)Gal(b1-4)GlcNAc(b1-6)]Man(a1-6)[GlcNAc(b1-3)Gal(b1-4)GlcNAc(b1-2)Man(a1-3)]Man(b1-4)GlcNAc(b1-4)GlcNAc
# Procedure, shortened: as §1
# [27] = biological target: GlcNAc(b1-3)Gal(b1-4)GlcNAc(b1-3)Gal(b1-4)GlcNAc
# Procedure, shortened: as §1
# [28] = biological target: GlcNAc(b1-3)Gal(b1-4)GlcNAc(b1-3)Gal(b1-4)GlcNAc(b1-2)Man(a1-3)[GlcNAc(b1-3)Gal(b1-4)GlcNAc(b1-3)Gal(b1-4)GlcNAc(b1-2)Man(a1-6)]Man(b1-4)GlcNAc(b1-4)GlcNAc
# Procedure, shortened: as §1
# [29] = biological target: GlcNAc(b1-3)Gal(b1-4)GlcNAc(b1-3)Gal(b1-4)GlcNAc(b1-2)Man(a1-3)[GlcNAc(b1-3)Gal(b1-4)GlcNAc(b1-3)Gal(b1-4)GlcNAc(b1-2)Man(a1-6)]Man(b1-4)GlcNAc(b1-4)[Fuc(a1-6)]GlcNAc
# Procedure, shortened: as §1
# [30] = biological target: GlcNAc(b1-3)Gal(b1-4)GlcNAc(b1-3)Gal(b1-4)GlcNAc(b1-2)[GlcNAc(b1-3)Gal(b1-4)GlcNAc(b1-3)Gal(b1-4)GlcNAc(b1-6)]Man(a1-6)[GlcNAc(b1-3)Gal(b1-4)GlcNAc(b1-3)Gal(b1-4)GlcNAc(b1-2)Man(a1-3)]Man(b1-4)GlcNAc(b1-4)[Fuc(a1-6)]GlcNAc
# Procedure, shortened: as §1
# [31] = biological target: GlcNAc(b1-3)Gal(b1-4)GlcNAc(b1-3)Gal(b1-4)GlcNAc(b1-3)Gal(b1-4)GlcNAc(b1-2)Man(a1-3)[GlcNAc(b1-3)Gal(b1-4)GlcNAc(b1-3)Gal(b1-4)GlcNAc(b1-3)Gal(b1-4)GlcNAc(b1-2)Man(a1-6)]Man(b1-4)GlcNAc(b1-4)GlcNAc
# Procedure, shortened: as §1
# [32] = biological target: GlcNAc(b1-3)Gal(b1-4)GlcNAc(b1-3)Gal(b1-4)GlcNAc(b1-3)Gal(b1-4)GlcNAc(b1-2)Man(a1-3)[GlcNAc(b1-3)Gal(b1-4)GlcNAc(b1-3)Gal(b1-4)GlcNAc(b1-3)Gal(b1-4)GlcNAc(b1-2)Man(a1-6)]Man(b1-4)GlcNAc(b1-4)[Fuc(a1-6)]GlcNAc
# Procedure, shortened: as §1
# [33] = biological target: GlcNAc(b1-3)Gal(b1-4)GlcNAc(b1-3)Gal(b1-4)GlcNAc(b1-3)Gal(b1-4)GlcNAc(b1-2)[GlcNAc(b1-3)Gal(b1-4)GlcNAc(b1-3)Gal(b1-4)GlcNAc(b1-3)Gal(b1-4)GlcNAc(b1-6)]Man(a1-6)[GlcNAc(b1-3)Gal(b1-4)GlcNAc(b1-3)Gal(b1-4)GlcNAc(b1-3)Gal(b1-4)GlcNAc(b1-2)Man(a1-3)]Man(b1-4)GlcNAc(b1-4)[Fuc(a1-6)]GlcNAc
# Procedure, shortened: as §1
# [34] = biological target: GlcNAc(b1-3)Gal(b1-4)GlcNAc(b1-3)Gal(b1-4)GlcNAc(b1-3)Gal(b1-4)GlcNAc(b1-3)Gal(b1-4)GlcNAc(b1-2)Man(a1-3)[GlcNAc(b1-3)Gal(b1-4)GlcNAc(b1-3)Gal(b1-4)GlcNAc(b1-3)Gal(b1-4)GlcNAc(b1-3)Gal(b1-4)GlcNAc(b1-2)Man(a1-6)]Man(b1-4)GlcNAc(b1-4)GlcNAc
# Procedure, shortened: as §1
# [35] = biological target: GlcNAc(b1-3)Gal(b1-4)GlcNAc(b1-3)Gal(b1-4)GlcNAc(b1-3)Gal(b1-4)GlcNAc(b1-3)Gal(b1-4)GlcNAc(b1-2)Man(a1-3)[GlcNAc(b1-3)Gal(b1-4)GlcNAc(b1-3)Gal(b1-4)GlcNAc(b1-3)Gal(b1-4)GlcNAc(b1-3)Gal(b1-4)GlcNAc(b1-2)Man(a1-6)]Man(b1-4)GlcNAc(b1-4)[Fuc(a1-6)]GlcNAc
# Procedure, shortened: as §1
# [36] = biological target: GlcNAc(b1-3)Gal(b1-4)GlcNAc(b1-3)Gal(b1-4)GlcNAc(b1-3)Gal(b1-4)GlcNAc(b1-3)Gal(b1-4)GlcNAc(b1-2)[GlcNAc(b1-3)Gal(b1-4)GlcNAc(b1-3)Gal(b1-4)GlcNAc(b1-3)Gal(b1-4)GlcNAc(b1-3)Gal(b1-4)GlcNAc(b1-6)]Man(a1-6)[GlcNAc(b1-3)Gal(b1-4)GlcNAc(b1-3)Gal(b1-4)GlcNAc(b1-3)Gal(b1-4)GlcNAc(b1-3)Gal(b1-4)GlcNAc(b1-2)Man(a1-3)]Man(b1-4)GlcNAc(b1-4)[Fuc(a1-6)]GlcNAc
# Procedure, shortened: as §1
# [37] = biological target: GlcNAc(b1-3)Gal(b1-4)GlcNAc(b1-3)Gal(b1-4)GlcNAc(b1-3)GalNAc
# Procedure, shortened: as §1
# [38] = biological target: GlcNAc(b1-3)Gal(b1-4)GlcNAc(b1-3)GalNAc
# Procedure, shortened: as §1
# [39] = biological target: GlcNAc(b1-3)Gal(b1-4)GlcNAc(b1-3)[GlcNAc(b1-3)Gal(b1-4)GlcNAc(b1-3)]GalNAc
# Procedure, shortened: as §1
# [40] = biological target: GlcNAc(b1-3)Gal(b1-4)GlcNAc(b1-6)[Gal(b1-3)]GalNAc
# Procedure, shortened: as §1
# [41] = biological target: GlcNAc(b1-3)Gal(b1-4)GlcNAc(b1-6)[GlcNAc(b1-3)Gal(b1-3)]GalNAc
# Procedure, shortened: as §1
# [42] = biological target: GlcNAc(b1-3)Gal(b1-4)GlcNAc(b1-6)[GlcNAc(b1-3)]Gal(b1-4)GlcNAc
# Procedure, shortened: as §1
binder,measurement,setting,value
B1,glycan array binding signal (z-score),[1],-0.153
same,glycan array binding signal (z-score),[2],-0.188
same,glycan array binding signal (z-score),[3],-0.15
same,glycan array binding signal (z-score),[4],-0.164
same,glycan array binding signal (z-score),[5],-0.136
same,glycan array binding signal (z-score),[6],-0.229
same,glycan array binding signal (z-score),[7],-0.256
same,glycan array binding signal (z-score),[8],-0.079
same,glycan array binding signal (z-score),[9],-0.176
same,glycan array binding signal (z-score),[10],-0.192
same,glycan array binding signal (z-score),[11],-0.151
same,glycan array binding signal (z-score),[12],-0.072
same,glycan array binding signal (z-score),[13],-0.374
same,glycan array binding signal (z-score),[14],-0.063
same,glycan array binding signal (z-score),[15],-0.125
same,glycan array binding signal (z-score),[16],-0.181
same,glycan array binding signal (z-score),[17],-0.288
same,glycan array binding signal (z-score),[18],-0.417
same,glycan array binding signal (z-score),[19],-0.255
same,glycan array binding signal (z-score),[20],-0.375
same,glycan array binding signal (z-score),[21],-0.36
same,glycan array binding signal (z-score),GlcNAc(b1-3)Fuc,-0.295
same,glycan array binding signal (z-score),GlcNAc(b1-3)Gal,-0.124
same,glycan array binding signal (z-score),[22],-0.163
same,glycan array binding signal (z-score),GlcNAc(b1-3)Gal(b1-4)Glc,-0.043
same,glycan array binding signal (z-score),[23],-0.101
same,glycan array binding signal (z-score),[24],-0.337
same,glycan array binding signal (z-score),[25],-0.233
same,glycan array binding signal (z-score),[26],-0.075
same,glycan array binding signal (z-score),[27],-0.175
same,glycan array binding signal (z-score),[28],0.964
same,glycan array binding signal (z-score),[29],-0.137
same,glycan array binding signal (z-score),[30],-0.28
same,glycan array binding signal (z-score),[31],-0.162
same,glycan array binding signal (z-score),[32],-0.074
same,glycan array binding signal (z-score),[33],-0.049
same,glycan array binding signal (z-score),[34],-0.062
same,glycan array binding signal (z-score),[35],-0.306
same,glycan array binding signal (z-score),[36],0.047
same,glycan array binding signal (z-score),[37],-0.226
same,glycan array binding signal (z-score),[38],-0.477
same,glycan array binding signal (z-score),[39],-0.128
same,glycan array binding signal (z-score),[40],-0.24
same,glycan array binding signal (z-score),[41],-0.305
same,glycan array binding signal (z-score),[42],-0.244
